Test results published in PubChem BioAssay AID1508624 (National Center for Advancing Translational Sciences (NCATS), 2021).
Among all 48,000 compounds or so, about 120 (0.25%) were called active. Another 4% or so got no clear call; they are omitted. Calls follow the shape of the dose curve; as a rule, active = well fitted activation curve with a large enough effect; inconclusive = small, poorly fitted or top-dose-only effect, or another doubt; inactive = no such curve, though single readings can be large or run the other way. The list shows a part of the results.

assay: Primary qHTS for Identification of Small Molecule Activators of Huntingtin-Antisense Promoter Activity; conditions: HEK293 HTT-AS promoter firefly luciferase reporter, 24 h; series mostly up to 57.5 µM; activity change, positive = activation: at the top concentration; also: nearly all actives have a fitted effect of over 55% in size
Outline: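 HEK293 Fluc reporter, 2,500 cells/well, 24 h pre-culture; cpds up to 57.5 uM final, 24 h 37 degrees C; Dual-Glo, 10 min RT; normalized vehicle = 0%, zero RLU = -100%.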

Activity change, positive = activation, inactive:
COc1ccc(-n2c(=O)c3c4c(sc3n(Cc3ccc(C)cc3C)c2=O)CCC4)c(OC)c1 1.94%
CCC(C(=O)Nc1ccc(C(C)=O)cc1)n1cnc2nc3c(cc2c1=O)CCCC3 (configuration not stated) 3.15%
CCOc1ccccc1NS(=O)(=O)c1ccc2c(c1)CC(C)N2C(=O)C1CC1 (configuration not stated) -31.1%
COc1ccc(OC)c(CNC(=O)Cn2ncc3c([nH]c4ccc(C)cc43)c2=O)c1 -3.02%
COc1cc(C(CC(=O)NCc2ccccc2)N2Cc3ccccc3C2=O)cc(OC)c1OC (configuration not stated) -8.31%
CCSc1ncc(Cl)c(C(=O)Nc2ccc(S(=O)(=O)Nc3ncccn3)cc2)n1 -8.96%
COc1cccc(CNC(=O)CCCn2ncn3c(cc4occc43)c2=O)c1OC -10.2%
CCCOC(C(=O)OC1CCN(C)CC1)(c1ccccc1)c1ccccc1 -11.5%
Cc1cccc(C(=O)Nc2nc3nc(-c4ccccc4)cc(=O)n3[nH]2)c1 -3.1%
CC(C)(C)OC(=O)N1CCC(c2c(C(=O)Nc3ccc4c(c3)OCCO4)cnn2-c2ccc(F)cc2F)CC1 -64.3%
CCOCCn1c(C2CCN(CCc3ccc(C(C)(C)C(=O)O)cc3)CC2)nc2ccccc21 -10.3%
COc1ccc(N2CC(NC(=O)COc3ccc(F)cc3)CC2=O)cc1OC (configuration not stated) -18.1%
CCOC(=O)C(=O)NCC(c1cccnc1)N1CCN(c2ccccc2)CC1 (configuration not stated) -6.16%
CCOC(=O)CC(NC(=O)c1cc2cc(Br)cc(OC)c2oc1=O)c1ccc(OC)cc1 (configuration not stated) -15.9%
O=C(Nc1cccc(OCc2cc(=O)n3ccccc3n2)c1)c1ccccc1Br 15.1%
CCC1CN(C(=O)NCc2ccccc2)c2cc(Cl)ccc2O1 (configuration not stated) -27.6%
CCN(CC)c1cc(C)c2cc(NC(=O)c3ccccc3Cl)ccc2n1 -10.7%
CCOC(=O)c1ccc(NC(=O)CSc2ccc(-c3ccccn3)nn2)cc1 -21.5%
COc1ccc(S(=O)(=O)NCCc2nnc3ccc(SCC(=O)Nc4cc(C)cc(C)c4)nn23)cc1 -16%
Cn1c(=O)n(C)c2cc(N3CCOCC3)c(NC(=O)c3ccc(Cl)cc3)cc21 -8.58%
O=C(NCc1ccc2c(c1)CCN2C(=O)c1ccncc1)c1ccccc1Cl 14.3%
Cn1c(=O)c2c(nc(CN3CCN(c4ccccc4F)CC3)n2Cc2ccccc2F)n(C)c1=O 7.25%
COc1ccc(OC)c(CCNC(=O)c2cc3cccc4c3n2CC(C)S4)c1 (configuration not stated) -20.9%
Cn1c2ccccc2c2c(C(=O)N3CCN(c4cccc(Cl)c4)CC3)cn(C3CCCCC3)c(=O)c21 -18.6%
COc1ccccc1CCNC(=O)C(=O)NCC(c1ccco1)S(=O)(=O)c1ccc(F)cc1 (configuration not stated) -12.4%
COc1cccc(N2CCN(C(=O)C3CCCN(S(=O)(=O)c4ccc5c(c4)oc(=O)n5C)C3)CC2)c1 (configuration not stated) -33.5%
Cc1ccc2nc(COc3ccccc3NC(=O)c3ccccc3C)cc(=O)n2c1 -4.68%
COc1ccc(-c2nnc(SCC(=O)Nc3cc(OC)ccc3OC)nc2-c2ccc(OC)cc2)cc1 5.47%
O=S(=O)(c1ccc(Cl)cc1)c1nc(-c2cccc(Br)c2)oc1NCc1ccccc1 -8.93% [at 11.5 µM, percent change from vehicle, -100% = no light]
CCc1cccc(C)c1NC(=O)Cn1c(=O)n(-c2ccc(C)cc2)c(=O)c2c1cnn2C -7.2%
COc1ccc(CCn2c(=O)c3cccnc3n(CC(=O)Nc3c(C)cccc3C)c2=O)cc1OC -5.43%
Cc1cccc(CCNC(=O)c2ccc3c(c2)nc2n3CCC(C)C2)c1 (configuration not stated) 24.9%
COc1cc2c(cc1OC)C1CC(=O)C(CC(C)C)CN1CC2 (configuration not stated) -10.4%
Cc1cccc(-c2noc(-c3ccc(NCc4ccco4)c([N+](=O)[O-])c3)n2)c1 21.7%
O=C(c1ccco1)N1CCN(c2nc3c(F)cc(F)cc3s2)CC1 21.5%
Nc1ccc(S(=O)(=O)NC(=O)c2ccccc2)cc1 -10.8%
COc1cccc(-c2ccc(-c3noc(-c4ccccc4Br)n3)c(OC)n2)c1 -0.58%
CCC(=O)N1c2ccccc2CC1C(=O)NCc1cccc(OC)c1OC (configuration not stated) -7.11%
CCOc1ccc(CCNC(=O)C2CCN(Cc3nc(-c4ccc(OC)c(OC)c4)oc3C)CC2)cc1OCC -2.28%
COc1cc(-c2nc(-c3ccc4c(c3)[nH]c(=O)n4C)no2)cc(OC)c1OC -4.05%
COc1ccc(-n2c(/C=C/c3cccc(C(F)(F)F)c3)nc3ccccc3c2=O)cc1Cl -17.5%
CCOc1ccccc1NC(=O)C1CCN(S(=O)(=O)c2ccc3[nH]c(=O)ccc3c2)CC1 -22.3%
Cc1ccn2c(=O)cc(COc3ccc(NC(=O)COc4ccccc4)cc3)nc2c1 -1.55%
Cc1ccc(S(=O)(=O)N2CCN(Cc3cc(Br)ccc3O)CC2)cc1 -27.4%
CCC(=O)N1CCc2cc(Br)cc(S(=O)(=O)N3CCCC(C(=O)NCc4ccc(F)cc4)C3)c21 (configuration not stated) -16.2%
Cn1cc(S(=O)(=O)N2CCCCCC2)cc1C(=O)N1CCN(c2cccc(C(F)(F)F)c2)CC1 -39.3%
N#Cc1ccccc1NC(=O)C(=O)NCCc1csc(-c2ccc(C(F)(F)F)cc2)n1 -5.15%
O=C1CSC2(C(=O)N(Cc3ccccc3)c3ccccc32)N1c1cccc(F)c1 (configuration not stated) -33.8%
CCc1ccc(NC(=O)COC(=O)CCCC2=NS(=O)(=O)c3ccccc3N2)cc1 -10.4%
Cc1cc(C)c(NC(=O)CSc2nc3ccccc3c3nc(CCn4cncc4C)nn23)c(C)c1 -35%
O=S(=O)(c1ccc(Cl)cc1)c1nc(-c2ccccc2Br)oc1NCc1ccccc1 -9.81%
COc1ccc(CCNC(=O)CSc2nc3nc(C)c(Cc4ccc(C)cc4)c(C)n3n2)cc1OC -38.6%
CCN1CCN(C(=O)c2ccc3c(c2)N(Cc2cccc(Cl)c2)C(=O)c2ccccc2S3=O)CC1 (configuration not stated) -3.22%
Cc1ccc(C)c(OCCn2c(C3CC(=O)N(Cc4ccc(F)cc4)C3)nc3ccccc32)c1 (configuration not stated) -42.9%
CCN(CC)CCCNc1cc(-c2ccccc2)nc(C)n1 -5.12%
CCOc1ccc2nc(N3CCN(C(=O)c4ccc(S(=O)(=O)CC)cc4)CC3)sc2c1 -30.7%
Cc1ccc(/C=C/C(=O)Nc2nc(-c3cccs3)ns2)cc1 -18.6%
COc1ccc(-n2cc(C(=O)N(CCN(C)C)Cc3ccccc3)c3ccccc3c2=O)cc1 -9.79%
COc1cc(C(=O)N(Cc2ccc(F)cc2)Cc2ccco2)cc(OC)c1OC -26.1%
C=C(CC)C(=O)c1ccc(OCC(=O)O)c(Cl)c1Cl -42.1%
CCn1c(C)c(C)c2cc(C(=O)NCCCN3CCCCC3C)ccc21 (configuration not stated) -0.828%
COc1ccc(CNC(=O)CS(=O)Cc2nc(-c3ccc(OC)c(OC)c3)oc2C)cc1 (configuration not stated) -4.9%
COc1ccc(Cn2c(=O)[nH]c3cc(C(=O)NCCC(C)C)ccc3c2=O)cc1 -2.29%
Cc1ccc(N(CC(=O)Nc2cccc(Cl)c2C)S(=O)(=O)c2c(C)noc2C)cc1 -27.6%
COc1cc(OC)cc(C(=O)Nc2cc(-c3nc4ccccc4[nH]3)ccc2C)c1 -20.4%
COC(=O)c1c(SC)nc2ccccc2c1OCc1ccc(Br)cc1 -23.7%
CCOC(=O)C1CCCN(c2nc3c(S(=O)(=O)c4ccc(Br)cc4)nnn3c3ccsc23)C1 (configuration not stated) -5.94%
CCOC(=O)CN1CCCC1=O -4.05%
OC[C@H]1O[C@@H](O[C@@H]2[C@@H](CO)O[C@](O)(CO)[C@H]2O)[C@H](O)[C@@H](O)[C@H]1O -4.29%
Cc1ccccc1CNC(=O)c1nn(-c2ccccc2F)nc1CO -25.2%
O=c1c2sccc2n(Cc2cc(=O)n3ccccc3n2)c(=O)n1-c1cc(F)ccc1F -19%
CCn1nc(-c2ccccc2)c(-c2ccccc2)c(C(=O)Nc2ccc(S(N)(=O)=O)cc2)c1=O -13.3%
COc1cccc2c1Oc1ncccc1N(C(=O)CCC(=O)NCCC(C)C)C2 -6.76%
COc1ccc(C(=O)Nc2ccc(-c3nnc4n3CCCCC4)cc2)cc1 -19.2%
COc1ccc(-c2n[nH]c3c2C(c2ccc(Cl)cc2Cl)NC3=O)cc1 (configuration not stated) -40.9%
CCN(CCCNC(=O)c1ccc(Sc2ccc(C)cc2)c(NC(C)=O)c1)c1cccc(C)c1 -31.2%
COc1ccc(-n2c(=O)c3c(c4cc(OC)ccc4n3C)n(CC(=O)NCC3CCCO3)c2=O)cc1 (configuration not stated) -21.4%
COc1ccc(NC(=O)Cn2c(=O)n(-c3cccc(C)c3)c(=O)c3c2c2cc(C)ccc2n3C)cc1OC -8.34%
CCOc1cccc(C(=O)Nc2ccc3oc(-c4ccc(C(C)(C)C)cc4)nc3c2)c1 -31.3%
Cc1ccc2oc(-c3ccc(C)c(NC(=O)c4ccc5c(c4)OCCO5)c3)nc2c1 -1.11%
CC(CCO)Nc1nc2c(c(=O)n(C)c(=O)n2C)n1Cc1ccc(Br)cc1 (configuration not stated) -3.41% [at 11.5 µM, percent change from vehicle, -100% = no light]
C#CCSc1nc2sc3c(c2c(=O)n1-c1cccc(OC)c1)CCN(C(C)=O)C3 -30.5%
COc1cc(Cl)c(NC(=O)c2cc(S(=O)(=O)N3CCOCC3)cn2C)c(OC)c1 -13.7%
CCOC(=O)c1ccc(-c2ccc(/C=C(\C#N)C(=O)Nc3c(C)cccc3Cl)o2)cc1 -8.53%
O=S(=O)(NCc1ccc(F)cc1)c1ccc2[nH]c3c(c2c1)CCCCC3 -34%
CCOC(=O)c1nc(Nc2ccc(OC)cc2)c2ccccc2n1 5.45%
Cc1ccccc1Nc1c(-c2cccc(O)c2)nc2ccc(Br)cn12 -19.7%
CC(C)CCNC(=O)c1ccc(Cn2c(=O)c3cccn3c3cccnc32)cc1 -20%
Cc1ccc(-c2nn(-c3cccc([N+](=O)[O-])c3)c3c2cnc2ccc(F)cc23)cc1 -7.86%
Cc1cccc(Nc2nc(Nc3cccc(C)c3)nc(N3CCOCC3)n2)c1 -29.5%
Cc1cc2c(n1-c1ccc(C(=O)NCC(C)c3ccccc3)cc1)CCCC2 (configuration not stated) 8.71%
CCOc1ccc(CNC(=O)c2ccc3c(c2)sc2nc(-c4ccc(OC)cc4)cn23)cc1 -23%
